Test results: the supplement of paper PMC3334620
In all, about 33,000 sequences were measured (“E-score (-0.5 to 0.5)”: median about -0.012, highest 2% from about 0.29 on). The list shows a part of the results.

target: T1, Ybr033w (UniProt P38073); experiment: PBM E-score (8-mer binding enrichment) (E-score (-0.5 to 0.5)); higher = stronger / more preferred TF binding; most listed sequences are background and not binding sites; conditions: protein concentration: 200 nM; construct: GST-full length
T1 sequence: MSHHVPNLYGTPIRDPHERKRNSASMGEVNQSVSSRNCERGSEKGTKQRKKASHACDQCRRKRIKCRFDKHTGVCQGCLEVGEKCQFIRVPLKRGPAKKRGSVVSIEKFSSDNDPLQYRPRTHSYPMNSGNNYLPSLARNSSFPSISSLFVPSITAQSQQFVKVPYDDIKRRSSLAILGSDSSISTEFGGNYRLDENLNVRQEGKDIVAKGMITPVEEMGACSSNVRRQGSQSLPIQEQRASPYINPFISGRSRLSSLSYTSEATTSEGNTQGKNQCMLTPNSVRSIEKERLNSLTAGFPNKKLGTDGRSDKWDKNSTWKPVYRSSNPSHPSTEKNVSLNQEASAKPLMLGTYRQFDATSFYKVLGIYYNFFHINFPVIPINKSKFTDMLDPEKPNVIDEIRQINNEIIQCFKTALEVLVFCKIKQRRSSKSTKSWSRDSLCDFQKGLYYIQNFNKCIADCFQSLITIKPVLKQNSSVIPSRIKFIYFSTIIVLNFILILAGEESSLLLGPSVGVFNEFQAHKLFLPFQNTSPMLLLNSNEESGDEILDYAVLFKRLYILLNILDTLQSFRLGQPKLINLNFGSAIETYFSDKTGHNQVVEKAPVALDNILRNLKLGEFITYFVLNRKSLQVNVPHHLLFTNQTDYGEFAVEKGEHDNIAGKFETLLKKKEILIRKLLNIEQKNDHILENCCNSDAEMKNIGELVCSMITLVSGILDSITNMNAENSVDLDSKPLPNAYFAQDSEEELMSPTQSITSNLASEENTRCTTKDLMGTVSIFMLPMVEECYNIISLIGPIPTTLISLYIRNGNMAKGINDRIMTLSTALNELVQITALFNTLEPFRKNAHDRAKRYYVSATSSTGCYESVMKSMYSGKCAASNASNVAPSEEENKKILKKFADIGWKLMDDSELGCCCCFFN
Method in brief: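 Yeast transcription factors, full-length or as DNA-binding domains, were expressed with a GST tag using PURExpress in vitro transcription/translation. At about 100-200 nM they were applied to universal all-10-mer Agilent arrays, double-stranded by primer extension on fresh or once-stripped slides. Fluorescent anti-GST detected bound protein, and masliner normalised the scans. E-scores for ungapped eight-base words, pooled with reverse complements, came from the Universal PBM Analysis Suite.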

Row | Sequence | PBM E-score
1 | AAACGTAT | 0.234
2 | GCGCAAAA | 0.177
3 | AAATGTGG | 0.171
4 | ACCGTAAA | 0.134
5 | ACTGGCAA | -0.141
6 | ATGGGGCG | -0.105
7 | TCTGGCCA | -0.17
8 | GCGATACC | -0.236
9 | AGAACTGA | 0.0735
10 | CCTTAGCA | -0.0375
11 | ATCGACGC | 0.0993
12 | GGCCAGAC | -0.152
13 | ATTTAGTA | 0.376
14 | GCGGTTGA | 0.0885
15 | GGATTAAA | 0.341
16 | GGCCAACC | -0.123
17 | TATACGAA | 0.182
18 | AATGATAA | 0.192
19 | ACACTCCT | -0.122
20 | AATTCCAC | 0.235
21 | GCGCCCGC | -0.226
22 | GCGATCCC | -0.201
23 | GCAAGAAC | 0.16
24 | CCAGCGCG | -0.101
25 | CATCGGTC | -0.201

Row | Sequence | PBM E-score
26 | TCAATTGA | 0.156
27 | CCTGACTC | -0.244
28 | CAGAGATG | 0.0423
29 | CATCTTCA | -0.0969
30 | AGACCTTC | -0.216
31 | GCCCATCA | -0.178
32 | AACTGAAA | 0.16
33 | CTCTCGCA | -0.197
34 | CCCAAGAC | -0.0859
35 | CTTGGGCC | -0.286
36 | AAATATGG | 0.12
37 | ATCAAGGG | 0.0233
38 | GTATCAAC | 0.00681
39 | CAGGATTA | 0.273
40 | ACGACGAT | 0.0312
41 | CGAGCACC | -0.323
42 | TACGCATA | 0.077
43 | TATCGAAA | 0.242
44 | CTTGTCGC | -0.143
45 | ACTGAGAT | -0.0419
46 | AGGGAACA | 0.249
47 | AACTAAAG | 0.231
48 | TCTAACCA | 0.0972
49 | CGGCCGGA | -0.048
50 | CCTACAGC | -0.219

Row | Sequence | PBM E-score
51 | AAACATTA | 0.0756
52 | CCCACAGG | -0.206
53 | CCGCTTAG | -0.179
54 | AAGCACGG | -0.216
55 | TGAGGACA | 0.00432
56 | AAGTCAAA | 0.148
57 | GCTCGCAC | -0.13
58 | CCCTTGTA | -0.161
59 | CAGAGATC | -0.0229
60 | TCCGGGAA | 0.146
61 | GTGATTTA | 0.295
62 | TAGGCACA | -0.124
63 | CCCTCACG | -0.289
64 | AATCGTGG | 0.149
65 | AATTTTTG | 0.265
66 | ATCCAGTA | 0.122
67 | AGACGACG | -0.16
68 | GGGTTGAC | -0.118
69 | AAAAGGAG | -0.104
70 | GCATGCCC | -0.0396
71 | CAGAAATA | 0.214
72 | CTCCGAAG | 0.0523
73 | AACGGCAC | -0.255
74 | ATGCCCTC | 0.00472
75 | GAGCTCGA | -0.137

Row | Sequence | PBM E-score
76 | CCTTTGTC | -0.0804
77 | ATCATCGC | -0.0317
78 | CTACAGAA | 0.148
79 | AACCACCA | 0.0528
80 | AACGCTTC | -0.045
81 | ACCGCGGG | -0.0509
82 | CTAAAGAA | 0.0669
83 | AGCCGCAT | 0.0405
84 | ATGAAAAG | -0.153
85 | ACATACTA | 0.138
86 | CTCTAGAC | -0.0638
87 | CACCATTA | -0.00605
88 | ACTGCTTA | 0.0348
89 | ATATGACG | 0.0969
90 | CATCTCGG | 0.0046
91 | AGAGCCAG | -0.223
92 | AAATCGTC | 0.112
93 | ACCACAGA | -0.0371
94 | AGCGCTTA | -0.0172
95 | ATGTGAAC | -0.132
96 | ACGACAAC | 0.096
97 | TAAATTAA | 0.283
98 | CCTTGATA | 0.105
99 | ATTGCACC | 0.0271
100 | GGCGCTTA | -0.164

Row | Sequence | PBM E-score
101 | ATCTAGCA | 0.0532
102 | ATATTAAT | 0.314
103 | ATATCTGC | 0.0752
104 | ACGATAAA | -0.0127
105 | ACGTCCCT | -0.0559
106 | GCCTTGGA | -0.248
107 | AACTCTCT | 0.0664
108 | ACATGTAA | 0.179
109 | GTTGACTA | 0.0137
110 | AAAGTAGG | 0.107
111 | AGAGGCTG | -0.239
112 | TAGGCCCA | -0.171
113 | CTCAAACA | 0.152
114 | ACTGCCCG | -0.0826
115 | AACTTTGG | 0.0726
116 | ATGTTGAG | -0.038
117 | ACCACATC | 0.0457
118 | GCAATTCC | -0.0347
119 | CCAAATCG | -0.0947
120 | GGGGTACA | -0.227
121 | ACAATACC | 0.166
122 | CCTCAGAC | -0.111
123 | AACAGGTG | -0.0949
124 | ACCGTGAT | -0.0251
125 | ACCGGGTG | -0.185

Row | Sequence | PBM E-score
126 | ACCTGACG | -0.12
127 | GCACCCCC | -0.384
128 | AGCAACCT | -0.101
129 | CTGACCAA | 0.157
130 | TGGTCACA | 0.0567
131 | GGGGAACC | -0.315
132 | AGCAGTAC | -0.11
133 | CTCTCGTA | 0.00252
134 | ACCACGTC | -0.0489
135 | AGCCCCGC | -0.111
136 | GATGCCCC | -0.335
137 | AAGTGGCA | -0.121
138 | TCGCAACA | -0.0873
139 | ATTGACCA | 0.0379
140 | GATTAGCA | 0.0317
141 | CTGCCTCA | -0.236
142 | GTTAAACA | 0.268
143 | CGCTAATA | 0.0954
144 | ACTACCGG | -0.11
145 | GCAATGGA | 0.06
146 | AAACAAGT | 0.13
147 | CTGGGGCC | -0.29
148 | GATCACGA | 0.114
149 | CCCTACGG | -0.199
150 | CGCGTAGC | -0.138

Row | Sequence | PBM E-score
151 | GACACTAC | -0.0871
152 | ATACTCGC | 0.0494
153 | CTAGAATA | 0.134
154 | GGGCTCAA | -0.131
155 | GGATCCAC | -0.169
156 | GATGCCGC | -0.144
157 | CAGAGGTA | -0.00719
158 | CTAACACC | -0.128
159 | GGCGTAGA | -0.0519
160 | CGAGCTCG | -0.21
161 | AATTCGCA | 0.114
162 | AAACGGCA | -0.0701
163 | ACTAGCGA | 0.0237
164 | ATACATCA | 0.222
165 | GTCTTCAA | -0.115
166 | CCTTCAGC | -0.203
167 | CAGACATA | -0.00613
168 | CCGCGGAG | -0.215
169 | ATTGAGTG | 0.0552
170 | GATCAGGC | -0.0722
171 | TCCAAGGA | 0.139
172 | AGTCTAGA | 0.0109
173 | GATCGACA | 0.0395
174 | ACCCTCCC | 0.0395
175 | GTCGCAGA | 0.091

Row | Sequence | PBM E-score
176 | AATCTTGT | 0.239
177 | CGTGCTAA | 0.0693
178 | CCATTTGA | 0.0264
179 | TCTTCGCA | 0.063
180 | CTTCAGTC | -0.0524
181 | AACGAAGG | -0.0656
182 | TACTCCAA | 0.169
183 | ACGTCAAC | 0.0705
184 | GATGTTCC | 0.412
185 | ACAGCTCC | 0.0221
186 | AAATGTAG | -0.00055
187 | TACAATCA | 0.171
188 | AAGAGATA | 0.0971
189 | ATTCGTAC | 0.142
190 | GAGCACTA | 0.0778
191 | ATCGCAAA | 0.226
192 | GCTAATCA | 0.0476
193 | AGCGTTGG | -0.308
194 | GCTGCCCA | -0.153
195 | AAGATGGA | 0.0115
196 | CGAAGTCA | -0.0609
197 | ATTCGCTC | 0.136
198 | TATTGCCA | 0.0304
199 | GCGCTGGA | 0.0122
200 | TACCTAGA | -0.0283

Row | Sequence | PBM E-score
201 | AAACAAAA | 0.228
202 | CCCGCAAA | -0.0454
203 | ACAAAAAA | 0.18
204 | AACTAGGG | -0.143
205 | CTCGCCTA | 0.0619
206 | CACTGTCA | -0.0717
207 | CGCGAGAA | -0.105
208 | CAGGAAAA | 0.387
209 | CCGTATGC | -0.0287
210 | AACCTAAG | 0.00876
211 | CAGAAGGA | -0.179
212 | GTCCATGA | -0.0868
213 | GCGCGACC | -0.145
214 | AACAGATG | -0.0312
215 | TTCTTAAA | 0.138
216 | CAGTTAAA | 0.192
217 | AGCCCTCG | -0.314
218 | GGAAATCC | -0.00538
219 | GACGACGA | -0.219
